# Assay results reported in ChEMBL document CHEMBL4888484, “Replenishing the malaria drug discovery pipeline: Screening and hit evaluation of the MMV Hit Generation Library 1 (HGL1) against asexual blood stage Plasmodium falciparum ,using a nano luciferase reporter read-out” (2022).
# About 540 (0.36%) of roughly 150,000 compounds showed an effect of 50% or more. The list shows a part of the results.
# System: Plasmodium falciparum
# Assay: Primary screen in NF54 nanoGlo assay, in single point, at 2uM, 72h; a lower Z score goes with more inhibition
# Format: functional, Erythrocyte
# Conditions: timepoint 72 hour
SMILES,% Inhibition [%],Z score
CN(C)S(=O)(=O)c1ccc(NS(C)(=O)=O)cc1F,-8,1.42
c1ccc(CNc2nc(-c3cccnc3)ns2)cc1,-10,0.94
COc1cccc(-c2ccc(N3CCN(C(=O)CN(CCN4CCOCC4)C(=O)CC(C)C)CC3)nn2)c1,-18,2.6
O=C(Nc1ccc(N2CCCC2=O)cc1)N1CCOC[C@@H](O)C1,1,-0.26
Cn1cc(S(=O)(=O)NC(=O)[C@H]2CC2(Cl)Cl)c2ccccc21,-4,0.53
CCOc1ccc(-c2[nH]c3ccc(Cl)c[n+]3c2C)cc1,-11,2.08
CCC1(CC)C(=O)N(C)C(=O)N(C)/C1=N/c1ccc(OC)cc1,-19,2.27
CC(C)[C@H](CNC(=O)NCc1cc(C(N)=O)co1)Cc1ccccc1,3,-0.42
Cc1cccc(OCC(=O)c2ccc3c(c2)N([C@@H](C)C(=O)N2CCOCC2)C(=O)CO3)c1,-25,2.69
CCOc1nc(C)ccc1C(=O)N1CC(OC(C)C)C1,-11,1.37
O=C(Cn1cc(C(=O)c2ccncc2)c(=O)c2cc(Br)ccc21)Nc1cccc(F)c1,-11,1.37
COc1cccc(OC[C@@H](O)CNC(=O)c2ccc3[nH]c(CO)nc3c2)c1,-2,0.27
Cc1ccc(C(=O)NCC(=O)c2ccco2)c(F)c1,-2,0.24
Cc1cnc(N2Cc3nnc(C4CCOCC4)n3[C@@H](Cc3c[nH]cn3)C2)nc1,1,-0.09
Cc1cccc(Nc2ncnc(C)c2C)n1,1,-0.16
CNC(=O)NC(=O)CNC1CCCCC1C(C)(C)C (stereo not given),-2,0.29
C[C@@H]1CN(C(=O)C2CCCOC2)C[C@H](C)N1CCO (stereo not given in full),-3,0.62
Cn1cc(CN2CC(F)(F)C(F)(F)C2)cn1,4,-0.65
CCCn1nccc1C(=O)NCc1nc(C2CC2)no1,3,-0.72
Cc1cnc(C(=O)N2c3ccccc3C[C@H]2c2nc(C3CC3)no2)cn1,-5,0.63
O=C(Nc1ccc(Cl)c(Cl)c1)C1[C@@H]2C=C[C@]3(O2)C(C(=O)NC2CCCCC2)N(CCN2CCCCC2)C(=O)[C@H]13 (stereo not given in full),-3,0.42
Cc1cc(C)nc(O[C@H]2CCN(C(=O)c3sc(C)nc3C)C2)n1,-17,2.62

SMILES,% Inhibition [%],Z score
O=C(O)[C@H](CO)Nc1nc(-c2ccccc2)nc2ccccc12,-16,1.44
Cc1cccc2c(C(=O)O)c3c(nc12)CCCCC3,-4,0.51
NC(=O)C1CCN(Cn2nc(C3CC3)cc(C(F)(F)F)c2=O)CC1,1,-0.13
COc1cc(Br)cc(C#N)c1O,41,-5.92
O=C1C[C@@H](c2nc(-c3sc4ccccc4c3Cl)no2)CCN1,-1,0.14
CC(C)Cc1ccc(S(=O)(=O)N2CCC[C@H]2c2nncn2Cc2ccncc2)cc1,4,-0.83
O=C(c1nc(C2CC2)nn1-c1ccccc1C(F)(F)F)N1CCOCC1,-8,1.52
COc1cc(NCc2ccc(C)c(F)c2)ncn1,-6,0.93
NC(=O)Cn1ccnc1[C@H]1CCCN(C(=O)c2ccc(-n3cccn3)cc2)C1,5,-0.88
CCOc1ccc(S(=O)(=O)N2CCC[C@H](Oc3ccncc3Cl)C2)cc1F,3,-0.37
CC[C@@H](C(=O)Nc1cc(C)nn1-c1nc2c(c(=O)[nH]1)CCC2)c1ccccc1,17,-3.37
CCN(CC)S(=O)(=O)c1ccc(C(=O)N(CC(N)=O)C(C)(C)C)cc1,-15,1.72
O=C(NCc1ccc(-c2nc3ccccc3o2)cc1)c1ccccc1Br,-12,1.3
CN(Cc1ccccc1)[C@@H]1COC2(C1)CN(C(=O)Cc1cccs1)C2,-6,0.93
O=C(O)/C(=C\c1cn(-c2ccccc2)nc1-c1ccccc1)NC(=O)c1ccccc1,-5,0.61
O=C(C1CCN(c2cc3c(nn2)CCC3)CC1)N1CCC(F)(F)CC1,13,-1.72
Cn1cnc2c1CCN(CCOc1ccccc1C#N)C2,-7,0.94
COc1ccc(C)nc1-c1ccc(N(C)C)nc1,1,-0.1
CC1=NN(c2nc(-c3ccccc3)cs2)C(=O)[C@H]1C,3,-0.55
C[C@H](NC(=O)c1cc2c(s1)CCCCC2)c1cn[nH]c1,-15,1.45
CC(C)Cn1c(C[C@H]2CCN(C(=O)Nc3ccccc3)C2)nc2cccnc21,-10,0.98
CCN(C1CC1)S(=O)(=O)c1c(C)n[nH]c1C,4,-0.6

SMILES,% Inhibition [%],Z score
Cc1ncc(CN2CC(O)(c3ccccc3)C2)s1,-3,0.4
Cc1nc(CN(C)CCc2nccs2)cs1,-8,1.03
CN1CCCc2cc(C(=O)N3CCC[C@H](Nc4ccc5c(c4)OCCO5)C3)ccc21,-6,0.75
CC(C)Cc1cc(C(=O)NCC[C@H]2CCCN(C)C2)on1,13,-1.62
CCN(C)C(=O)N[C@H]1CCCCC[C@H]1NC(=O)N(C)CC,-9,1.44
Cc1nn(-c2ccc(F)cc2)c(C)c1[C@@H]1CC(O)=Nc2c1c(C)nn2-c1ncnc2[nH]cnc12,-18,2.24
CC(C)c1nc(CC(=O)N[C@@H](C)c2ccc3c(c2)CC(=O)N3)cs1,-5,0.88
COc1ccc(C(=O)Nc2ccc(-n3nc(OCC(C)C)nc3-c3ccc4c(c3)OCO4)cc2)cc1,-17,1.8
CCc1nccc(CN2CCC[C@H](CS(C)(=O)=O)C2)n1,-20,2.11
C[C@@H](CNC(=O)NC1CCCCC1)Cn1cc(Cl)cn1,4,-0.53
CCOCC(=O)Nc1cncc(Br)c1C,-4,0.86
O[C@H](c1ccccc1)c1nncn1Cc1ccc(F)c(F)c1,-13,1.51
Cc1ccc(-c2nnc(CN3CCN(c4ccccc4Cl)C(=O)C3)o2)n1C,-4,0.43
COC(=O)Cc1cnc(NC(=O)CNCc2ccncc2)s1,-9,1.4
O=S(=O)(c1ccc(N2CCC(CO)CC2)nc1)N1CCCCC1,6,-0.65
COc1ccc(-c2nnc(NC(=O)[C@H](C)c3ccccc3)s2)cc1,5,-0.72
COc1ccc(-n2ccc3c(cnc4ccn(-n5cnnc5)c(=O)c43)c2=O)cc1,11,-1.61
O=C(c1cc(CC2(NC3CCC(CO)CC3)COC2)no1)N1CCCCC1 (stereo not given),1,-0.08
COc1cccc(N2C(=O)N(c3ccc(Cl)c(Cl)c3)C3CS(=O)(=O)CC32)c1 (stereo not given),3,-0.37
CCc1c(C)noc1NC(=O)CCN1CCCCC1=O,-1,0.17
O=C(c1onc2c1CCCC2)N1CCn2c(Cc3ccccc3F)nnc2C1,2,-0.25
Cc1ccc2cc(CN(CC3CC3)C(C)C)c(=O)[nH]c2c1,-16,3.17

SMILES,% Inhibition [%],Z score
CC(C)(C)OC(=O)NCc1cnn(C2CCCC2)c1,-5,0.93
COc1cccc(CNC(=O)c2c(C)noc2-c2cccc(F)c2)c1,-12,1.88
CC(C)(C)OC(=O)NC[C@@H](C(=O)O)c1ccccc1,18,-2.06
CCOc1ccc(C2=Nc3ncnn3/C2=N/Cc2ccc(C)cc2)cc1,-4,0.75
CC(C)Oc1ccc(C(=O)N(CN2CCCC2=O)c2ccc(F)cc2)cc1,-6,1.01
COCCN(CCN(C)C)C(=O)CNc1cc(Cl)ccc1OC,-14,1.98
CCOCCNC(=NC)N(C)Cc1ccc(OC)c(F)c1,-3,0.24
CCc1c(C(=O)N(C)Cc2cscn2)cnn1C(C)(C)C,8,-1.53
COc1ccc(CC(=O)N2CC[C@@]3(CCCN(CC4CCC4)C3=O)C2)cc1,-4,0.49
O=C(CC1CCCCC1)NC1(c2ncon2)CCOCC1,-1,0.12
CC(C)(C)c1ccc(OCc2n[nH]c([C@H]3CCCN3)n2)cc1,-13,1.85
C[C@H](N(C)C(=O)CCc1ccco1)C(C)(C)C,-9,1.37
CCC(=O)N1CCCC[C@H]1c1nnc2n1CCN(C(=O)c1ocnc1C)C2,-3,0.42
Cc1cc(C(=O)N(CCN2CCOCC2)C2CCOCC2)cc(C)n1,-9,1.45
COc1cccc(CN2CC(N(C3CCOCC3)S(C)(=O)=O)C2)c1,-16,2.95
O=C1C[C@@H](c2ccccc2)N(C(=O)CC2CCCC2)CCCCCN1,-5,0.69
CN(C)Cc1nc(C(=O)N[C@H]2COCC[C@@H]2Oc2ccccn2)cs1,0,0.05
CC1CCC(C(N)=O)C(C)N1C(=O)[C@H]1CCCO1 (stereo not given in full),4,-0.59
O=C(NCCc1ccncc1)C1CN(C(=O)COc2ccccc2F)C1,-9,1.36
